The record followed here is the RNAGym collection of RNA variant scans (doi:10.1093/nar/gkz1192).

B1: CPEB3 Ribozyme (parent)
chain: UAACAGGGGGCCACAGCAGAAGCGUUCACGUCGCAGCCCCUGUCAGAUUCUGGUGAAUCUGCGAAUUCUGCUGUAUAUCUC

The source gives no read counts; variants with many changes may rest on few reads.

Variants of B1 are the subject of this series. The series can be described thus: self-cleavage, relative activity (ratio to wild type); higher = more cleavage; in vitro, sequencing. In outline: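 CPEB3 self-cleaving ribozyme mutant libraries were made by rounds of error-prone PCR, barcoded, and transcribed in vitro with T7 RNA polymerase for 5 hours at 37°C. Cleavage occurred during transcription and a 15 min DNase I step before EDTA stop. RNAs were reverse transcribed with template switching and Illumina-sequenced, with DNA sequencing mapping barcodes to variants. Relative activity is the variant's cleaved/total read fraction divided by wild type's (minimum 5 reads), averaged across three batches.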
Consider G10U C27A U67C U78A, for which the self-cleavage came to 0.03. Consider G10A A15U U31G U67C U69C A75G, for which the self-cleavage was determined as 0.07. As for G10U U41C G63U U69C U74A, the self-cleavage was 0.05. On to G10A G46A A57G A64G U80A, for which the self-cleavage came to 0.06. Take G9C G52A A64U: the self-cleavage is 0.13. C11A U31C A45G U76C: the self-cleavage came out at 0.06. Take G10A A35G U43G: the self-cleavage stood at 0.22. Turning to G10C A21G U66C U76C, the self-cleavage is 0.06.

With G10A A13G G36A U48C, the self-cleavage is 0.14. Take G10U U26A U72C C81U: the self-cleavage was determined as 0.05. Turning to G9U A15C U26C A56U U58C U72C U78A, the self-cleavage is 0.28. On to C11G A15C C32A, for which the self-cleavage amounted to 0.19. G10A A21G U48A U69C U72C U78C: the self-cleavage came out at 0.1.

With G9C U54A A57G U60C U69C, the self-cleavage worked out at 0.12. For G10U A28G A65G U69A U72G U74A U80A, the self-cleavage was found to be 0.04. In the case of G9A U66C U67A A77C, the self-cleavage was 0.12. For the variant C11A U31G U48C U69A U72A, the self-cleavage turned out to be 0.13. As for G10U A35G U43A A64U U72C, the figure is 0.17. G9A U43C U58A U80A: the self-cleavage is 0.07.

Take G10A C37U U80C: the self-cleavage is 0.98.

Consider C11A U25C U31G, for which the self-cleavage stood at 0.05. In the case of G10A U25A G36U A45G A47G, the self-cleavage is 0.05. As to G10A A20G U25A U58C A65G, the self-cleavage was 0.03. For G10A U41C U48C, the self-cleavage worked out at 0.06.

In the case of G10U A56G A77G U80A, the self-cleavage was 0.05. Regarding G9U U25C U48C U51C, the self-cleavage worked out at 0.04. As for G10U A13G A20U G61C U66C U72C, the self-cleavage turned out to be 0.06. Turning to G9U U43C U49C A64U, the self-cleavage is 0.07. Regarding G10A C14U U48C A65G U72C, the self-cleavage is 0.05. With G9U U31C U41C A47C U49C A64C, the self-cleavage amounted to 0.16. In the case of G10U G24C U80G, the self-cleavage is 0.13. For the variant G10A A57G C62A, the self-cleavage was 0.05. As to G10A A28G G30U G61A, the self-cleavage stood at 0.08. With C11A G33A U43A, the self-cleavage amounted to 0.32. To G10U C34G C40A A45U A47G U54A U60C belongs 0.02; to G10A A13G U31A A35G A64G, 0.06; to G10A U31G U51C, 0.31. Regarding C11A U48C G63U U67A, the self-cleavage was 0.04. Regarding C11A A15G U80C, the self-cleavage is 0.32.

With G10A A57C U74C, the self-cleavage is 0.18. Regarding G10A U25C U26C U51C U72C, the self-cleavage came out at 0.07. In the case of G10A U54C U69C U74C, the self-cleavage is 0.07. Regarding C11A A21G U31A C34G, the self-cleavage worked out at 0.04. As for G10C A21U A56U U72C, the figure is 0.1; as for G10U U26A U41A C62U U67C, 0.1. For the variant G10A G36A U41A U51G U76A, the self-cleavage was 0.05. To G9C A13C A45U U48C U49C U69A belongs 0.32; to G10A A18G U67C, 0.33; to G9A U41C A56U, 0.2. As for G10U G24A U26C U43C A77G, the self-cleavage came to 0.11. On to G10A G36A A56G U80C, for which the self-cleavage was 0.06. As for G9U U26C U31C C38U, the self-cleavage turned out to be 0.27. To G9A U41C A47C U48C A64G U66C U69C belongs 0.25; to G10C U26A A45G U49C, 0.24. To C11A U48C A65G U66A belongs 0.

For the variant G10C A15U A18G U54C, the self-cleavage amounted to 0.22.

In the case of G10C A18G U25C U67C U74C, the self-cleavage was 0.12. For the variant G10A A15C U51C, the self-cleavage was determined as 0.29. To G10A A18G U26C C29A U41G A47C belongs 0.2; to C11A C27A C38A U60A A64C, 0.06.

For the variant C11A A20G G33A U43C, the self-cleavage came out at 0.3.

For the variant G9U U51A U80C, the self-cleavage was 0.08. To C11A A45G U78A belongs 0.38.

Regarding G10A A15G A21G U54A, the self-cleavage came out at 0.41. On to C11G A13G A20G A64G U76C, for which the self-cleavage turned out to be 0.07.

With G9C A18U C50A A65G U80A, the self-cleavage stood at 0.05.

G9U U43C A45G U51C U69A: the self-cleavage is 0.05. To C11A A21U G30A U54G U60C belongs 0.05; to G9C U31C A47U U66C U69C, 0.06; to G10C A20G G22U G63U U66C, 0.08. Turning to G10A U26A A64U, the self-cleavage was determined as 0.07. To G9U U51G U58C A64U U80A belongs 0.06. In the case of G9U C11G U66G, the self-cleavage is 0.07. In the case of C11A U41C A64G, the self-cleavage came to 0.29.

On to G10A A20U U60C U69C U78A, for which the self-cleavage worked out at 0.04. For the variant C11A A28U U43A C59G, the self-cleavage was determined as 0.06. For the variant G10A U43C U54C U78C, the self-cleavage was determined as 0.24. C11A U41A A45G U60C C62A: the self-cleavage was 0.14.

Regarding G10A A13U U41A U49C U78A, the self-cleavage worked out at 0.06. Consider G9U G33C U43C G52U U54C U60A, for which the self-cleavage was found to be 0.08.

Turning to G9A U49A U69C U72A, the self-cleavage amounted to 0.12.

Regarding G9U A15U U26C U51A U66C U78C, the self-cleavage turned out to be 0.07.

In the case of G10U A20G A64U, the self-cleavage was 0.13. G10U C12U A20U: the self-cleavage turned out to be 0.07.

On to C11A G30U A56G, for which the self-cleavage is 0.08.

As for C11A U54C A56G U60C C71G, the self-cleavage came to 0. For C11G A13U A21G U31C A35G A45C U51A, the self-cleavage worked out at 0.04.

As for G10A A45C A57G C59A, the self-cleavage turned out to be 0.06.

G9U A15U A21G: the self-cleavage turned out to be 0.17. For the variant G10A A18U U31C U41C U48C U49C U78A, the self-cleavage came out at 0.28.

In the case of G9C U48C U72C U78C, the self-cleavage was 0.4. For G10U U31C A57G C71G, the self-cleavage amounted to 0.06. Take G9U G70A A77U: the self-cleavage came out at 0.16. Take C11A C32U A56G U60A U67C: the self-cleavage came out at 0.05. As to G9U C23A A45G U69C U78C, the self-cleavage is 0.08. To G9U U51C G52U U67C belongs 0.13. Take G10A A13U A18G C29U U58C: the self-cleavage is 0.1.

With G9U U25C A56C, the self-cleavage came out at 0.04. For the variant G9C A18C A28G U41A U72A U74C, the self-cleavage was determined as 0.43. For the variant G9U A21G U26C U31A A45G, the self-cleavage worked out at 0.12.

As for G10A C11G U26C C40U A65C, the self-cleavage was determined as 0.05. With G9U C34U A35G U60G, the self-cleavage was 0.06. As to G9A U48C U72C U80C, the self-cleavage was found to be 0.39. To C11G A15G U31A U51A U58A U66C U69C belongs 0.17; to G9C U41C A64G A75U U78A, 0.04; to G9U A56U A64U, 0.08. In the case of G10A A18U U43A, the self-cleavage is 0.02.

In the case of G10A A15U U31A A77G, the self-cleavage amounted to 0.05.

In the case of G10A A21U U25C A35G U43A U54C A65G, the self-cleavage was determined as 0.03.

G9C U31C A56G: the self-cleavage came out at 0.25.

In the case of G10A C39U U41A A56G, the self-cleavage was 0.07. Regarding G9U A35U A57U A64G, the self-cleavage worked out at 0.08. As for G9U U25C U67C, the self-cleavage was found to be 0.11.

G9U A28U A47G U58A U72A: the self-cleavage turned out to be 0.04.

For the variant C11A A57G A65G U72C, the self-cleavage is 0.03. Take C11G A13C G30A: the self-cleavage is 0.36. In the case of G9U C17U G19U C39U A45U U66C U72C, the self-cleavage was 0.04. Consider G10C A15G U25C C32A U43C A77G U80C, for which the self-cleavage was 0.04.

On to G10A U31G G73A, for which the self-cleavage stood at 0.07.

Take G10A A64G U78C: the self-cleavage amounted to 0.14. Consider C11A A21G C23U, for which the self-cleavage is 0.26. G9U A15G A20G U26C A28G U72A: the self-cleavage was 0.05. For G9U U25C U26C A28U U69C U78C, the self-cleavage came out at 0.04. Take G10U U41A U51A C62U U67C: the self-cleavage turned out to be 0.09. With G10A A21U G24A U58C U72A, the self-cleavage is 0.09.

Take C11A A18C A57G A77U: the self-cleavage was determined as 0.05. As for G10C A18G U25C A35G U43C U48A U78C, the self-cleavage was found to be 0.21. To G10A A20G U48A U51G A57G A64U belongs 0.03.

As for C11A G30A A35G U43C A45U A56G, the self-cleavage is 0.05. Regarding G10U A57G A64G U69C, the self-cleavage worked out at 0.05. For the variant C11A A28U C81G, the self-cleavage worked out at 0.13.

Take G9U A13U G19A U26G U41A C50U: the self-cleavage worked out at 0.05.

Regarding G9U G36C A45G U54C U78G, the self-cleavage worked out at 0.03.

With G10A A21G A47G U51C U69A, the self-cleavage is 0.17. Regarding C11A U25G U54A U66C, the self-cleavage was 0.05.

With G10C A13G A18U A28U C40U U80C, the self-cleavage worked out at 0.26. With C11A G53U U72C, the self-cleavage turned out to be 0.35.

G10A A18U U49C: the self-cleavage was determined as 0.11. To G10A A47G A56G U76A belongs 0.16; to G10A U60C U78C, 0.18; to G10A U41A G63U, 0.2.

For G9A U48A U80C, the self-cleavage amounted to 0.09.

Regarding G10C A15G U25C, the self-cleavage was found to be 0.05. For the variant G10A U31C A45C U60A A64G U72A, the self-cleavage is 0.16.

With G9C U54G U72C, the self-cleavage was 0.08.

Take C11A G33U U43C: the self-cleavage is 0.08. To G10A G19U U26A A45C G63A belongs 0.18; to G10C A18U U25A A77U, 0.14.

As for C11A A18C U26A, the self-cleavage came to 0.09. To G10C U58A G63C U67C belongs 0.06. G9U U51C A65G: the self-cleavage was 0.06.

As for G10C A18U A21U U31C U49C, the self-cleavage came out at 0.11. For G10A A28G G63A A65G, the self-cleavage stood at 0.04. In the case of G9C C14U A57C, the self-cleavage was determined as 0.05. Turning to C11A A13G U31A, the self-cleavage is 0.41. As for G9C A13U U31A U69C, the figure is 0.05; as for G10A A28G A45U A56U U60C, 0.03; as for G10A A20G U43A G61A, 0.05.

Turning to G10A A28U A75U, the self-cleavage stood at 0.28. On to G10A C62G U78C, for which the self-cleavage was found to be 0.12. Turning to G9C A28G G36C, the self-cleavage was determined as 0.04.

Regarding C11G A13G A15U G30A U41A A45U G52A, the self-cleavage is 0.05.

G9A U41A U78C: the self-cleavage is 0.39. On to G10A U25C U26C U31C A45G, for which the self-cleavage was determined as 0.06.

Consider G10A U25A U66C U72C, for which the self-cleavage stood at 0.04. G9U U72C A77U: the self-cleavage turned out to be 0.37.

For the variant G9C A35C U67C U72A U78C, the self-cleavage is 0.1.
